Experimental data: article PMC4336329 (PLoS ONE, 2015)
In all, about 310,000 compounds went through this assay and about 14,000 (4.5%) showed an effect of 50% or more. Effects have a minus sign here. Some of the results follow.

target: human ether-à-go-go-related gene (hERG) potassium channel (human, UniProt Q12809); assay: primary screen, population patch clamp on CHO cells stably expressing hERG
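Note: peak tail current of the secondary pulse compared with the same well before compound.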

human ether-à-go-go-related gene (hERG) potassium channel, sequence (Q12809 whole entry, looked up): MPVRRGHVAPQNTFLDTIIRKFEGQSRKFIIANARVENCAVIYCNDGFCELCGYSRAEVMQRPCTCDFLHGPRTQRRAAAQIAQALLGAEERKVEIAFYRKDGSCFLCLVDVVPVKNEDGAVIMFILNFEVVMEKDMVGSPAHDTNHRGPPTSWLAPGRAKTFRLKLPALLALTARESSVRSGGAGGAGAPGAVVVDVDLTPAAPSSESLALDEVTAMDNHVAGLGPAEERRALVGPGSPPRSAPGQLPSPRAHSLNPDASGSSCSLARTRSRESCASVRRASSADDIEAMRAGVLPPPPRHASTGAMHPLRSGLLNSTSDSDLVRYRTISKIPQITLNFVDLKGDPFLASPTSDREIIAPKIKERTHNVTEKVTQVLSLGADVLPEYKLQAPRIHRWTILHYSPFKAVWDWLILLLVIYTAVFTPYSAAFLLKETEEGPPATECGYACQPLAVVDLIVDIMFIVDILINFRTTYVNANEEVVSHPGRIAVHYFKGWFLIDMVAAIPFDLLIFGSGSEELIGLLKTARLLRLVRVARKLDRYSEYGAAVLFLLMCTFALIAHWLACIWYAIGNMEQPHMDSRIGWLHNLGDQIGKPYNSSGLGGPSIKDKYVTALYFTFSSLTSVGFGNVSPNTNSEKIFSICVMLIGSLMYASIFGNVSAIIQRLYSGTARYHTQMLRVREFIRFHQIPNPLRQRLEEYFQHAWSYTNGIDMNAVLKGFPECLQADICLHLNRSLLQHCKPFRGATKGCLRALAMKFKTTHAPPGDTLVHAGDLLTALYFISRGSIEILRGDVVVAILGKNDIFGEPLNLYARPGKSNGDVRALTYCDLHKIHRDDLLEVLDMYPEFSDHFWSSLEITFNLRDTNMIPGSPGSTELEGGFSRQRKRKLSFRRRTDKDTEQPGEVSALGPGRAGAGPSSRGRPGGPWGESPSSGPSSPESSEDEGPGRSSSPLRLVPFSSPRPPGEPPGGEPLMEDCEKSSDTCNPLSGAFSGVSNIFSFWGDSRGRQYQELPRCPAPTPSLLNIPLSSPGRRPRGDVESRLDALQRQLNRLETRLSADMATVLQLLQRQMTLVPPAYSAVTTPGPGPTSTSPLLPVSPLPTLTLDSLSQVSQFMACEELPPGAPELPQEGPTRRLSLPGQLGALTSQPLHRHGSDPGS

| SMILES | hERG current change (%, negative = inhibition) at 10uM [%] |
| --- | --- |
| O=C(c1nn2c(C(F)(F)F)cc(-c3cccs3)nc2c1Cl)N1CCCc2ccccc21 | 16 |
| Oc1[nH]c2ccccc2c1N=NC(=S)N1CCOCC1 | 7.4 |
| COc1cc(/C=C(\C#N)C(=O)N2CCOCC2)cc(Br)c1O | 9.46 |
| Oc1ccc(/C=N/N(c2ccccc2)c2ccccc2)cc1O | 11.8 |
| CCCCOc1ccc(OCCCN2CCOCC2)cc1.Cl | -23.1 |
| Cc1cc(C)n(-c2ccc(C(=O)Nc3ccc(C)c(S(=O)(=O)N(C)C)c3)cc2)n1 | -13.9 |
| COc1cccc(OC)c1C(=O)NC(=S)N1CCN(c2ccc(C(F)(F)F)cc2[N+](=O)[O-])CC1 | -28.7 |
| Cc1ccc(N2C(=O)[C@@H]3C(C(=O)CN4C(=O)c5ccccc5C4=O)=NN[C@@H]3C2=O)c(C)c1 | 3.93 |
| O=C(NCCCN1CCN(Cc2ccccc2)CC1)C1CCN(S(=O)(=O)N2CCC3(CC2)OCCO3)CC1 | 1.25 |
| CC(=O)Nc1nc2ccc(C(=O)NCCOC(=O)C3CCCCC3)cc2s1 | -14.2 |
| CCN1CCN(c2ccc(S(=O)(=O)N3CCCCC3)cc2NC(=O)c2ccc([N+](=O)[O-])s2)CC1 | -80.6 |
| CCc1nnc(NC(=O)Cc2sc(C)nc2-c2ccc(C)cc2)s1 | 10.8 |
| CN(C)C(CNC(=O)C1CCN(S(=O)(=O)c2cccc(Cl)c2Cl)CC1)c1ccccc1 (stereo not shown) | -34.8 |
| Cc1nc(N2CCN(c3ccccn3)CC2)c2c(C)c(C(=O)Nc3ccc(Cl)cc3)sc2n1 | -7.01 |
| Cc1c(NC(=O)C(C)OC(=O)c2c3c(nc4ccccc24)CCC3)c(=O)n(-c2ccccc2)n1C (stereo not shown) | -16.7 |
| c1ccc2c(SCc3cn4cccnc4n3)ncnc2c1 | -5.05 |
| CCn1c(SCC(=O)N2CCCc3ccccc32)nnc1-c1ccco1 | -5.2 |
| Cc1ccc(S(=O)(=O)N2CCCC(C(=O)Nc3cccnc3)C2)cc1 (stereo not shown) | -22.4 |
| CCOc1ccccc1N1CCN(C(=O)c2c(-c3c(F)cccc3Cl)noc2C)CC1 | -8.88 |
| Cc1ccc(S(=O)(=O)NN)c(C)c1N1CCCC1=O | 8.62 |
| Cc1ccc(S(=O)(=O)N(CC(=O)NCc2ccco2)Cc2ccc(F)cc2)cc1 | -67.1 |
| CCOc1cc(/C=C2/C(=O)ON=C2C)cc(Br)c1O | -4.19 |

| SMILES | hERG current change (%, negative = inhibition) at 10uM [%] |
| --- | --- |
| CSCC[C@H](NC(=O)c1cccs1)c1nnc2ccccn12 | 11.7 |
| O=C(CSc1nc2ccccc2c(=O)n1-c1ccc(Cl)cc1)c1ccco1 | 7.24 |
| CC(C)CCNC(=O)c1onc(CSc2ccccn2)c1C(=O)NCCC(C)C | -1.57 |
| Cc1ccc(S(=O)(=O)N2CCN(Cc3nc4sc(C)c(C)c4c(=O)[nH]3)CC2)cc1 | 18.2 |
| Nc1c(C(=O)N2CCCC2)sc2nc3c(cc12)CCCCCC3 | -19.5 |
| Cc1onc(-c2c(Cl)cccc2Cl)c1NC(=O)NC1CCSC1 (stereo not shown) | 13.6 |
| CCOc1cc(C(=S)N2CCOCC2)ccc1OS(=O)(=O)c1ccc(C)cc1 | 11 |
| CC(=O)c1ccc(Nc2cc(C)nc3c(C)cccc23)cc1 | -36.2 |
| CCOC(=O)c1c(C)n(OCc2ccccc2)c2ccc3nonc3c12 | 6.14 |
| O=C(NC1CCCCC1)C(c1ccccn1)N(C(=O)c1csnn1)C1CC1 (stereo not shown) | 20.3 |
| COc1cccc(OC)c1C(=O)NC(=S)Nc1cccc(NC(=O)c2ccco2)c1 | 28 |
| CCC12C=CCN3CCC4(c5cc(Br)c(OC)cc5N(C)C4C(O)(C(=O)OC)C1OC(C)=O)C32 (stereo not shown) | -3.35 |
| COc1cc(/C=N/N(CCO)C2=NS(=O)(=O)c3ccccc32)cc(OC)c1OC | 15.6 |
| Cc1ccc(Nc2ccc([N+](=O)[O-])cn2)cc1Cl | 4.87 |
| CCOC(=O)c1sc(NC(=O)c2ccc(S(=O)(=O)N3CCOCC3)cc2)cc1C | -19.4 |
| O=S(=O)(NC1CCCCC1)c1ccc(N2CCOCC2)nc1 | -2.81 |
| COc1ccc(CCNC(=O)c2nnn(CC(=O)Nc3cccc(F)c3)c2N)cc1OC | 5.94 |
| Cc1ccc(C(=O)c2sc3nc4c(cc3c2N)CCC4)cc1 | 6.76 |
| COc1cccc(-n2c(-c3ccoc3)nc3ccccc3c2=O)c1 | -11.3 |
| CCOc1ccc(CCNC(=O)CN2C(=O)NC(CCSC)C2=O)cc1OCC (stereo not shown) | 11.3 |
| O=C(c1ccco1)N1CCN(S(=O)(=O)c2ccc3c(c2)CCN3C(=O)C2CCC2)CC1 | -24.2 |
| CC(C)OCCCNS(=O)(=O)c1ccc2c(c1)OCCO2 | 10.8 |

| SMILES | hERG current change (%, negative = inhibition) at 10uM [%] |
| --- | --- |
| Cc1cccc(C)c1OCC(O)CN1CCN(c2ccccc2)CC1.Cl (stereo not shown) | -53.1 |
| Cc1nc2cc(NCc3cccs3)ccc2n1C | -27.4 |
| CC(=O)N/C(=C\c1ccccc1Cl)C(=O)O | 12.6 |
| Cc1nc2cc(-c3cccc(F)c3)nn2c(C)c1CCC(=O)N1CCN(c2ccccn2)CC1 | -13.1 |
| COCCn1c(SCC(=O)Nc2cccc(F)c2)nc2c([nH]c3ccccc32)c1=O | 17.6 |
| O=C(Nc1ccc(N2CCOCC2)c(Cl)c1)c1ccc(Cl)cc1 | -3.56 |
| Cc1ccc(-n2c(-c3ccccc3)cc(/C=N/NC(=O)CC#N)c2-c2ccccc2)cc1 | 23.4 |
| CCOC(=O)c1c(C)nn(Cc2ccccc2)c1N | 3.83 |
| O=c1[nH]c(=S)n(CCC2=CCCCC2)c(O)c1C=NCc1cccnc1 | -0.946 |
| CCOc1ccc(NC(=S)N(CCOC)C2CCN(C(C)C)CC2)cc1 | -29 |
| Cc1cccc(NC(=O)CN2C(=S)NC(C)(C)CC2C)c1 (stereo not shown) | 7.04 |
| CC(=O)c1cc(F)ccc1OCC(=O)N1CCN(c2ccc(F)cc2)CC1 | -58.2 |
| CC(=O)Nc1ccc(S(=O)(=O)N2CCC(c3nnc(-c4ccc(C)cc4)o3)CC2)cc1 | -51.1 |
| Cc1cc(OCC(=O)N(C)C)c2c(-c3ccccc3)cc(=O)oc2c1 | -37.9 |
| COc1ccc2[nH]c3c(=O)n(CCCN4CCOCC4)cnc3c2c1 | -3.86 |
| CCCCc1nc(N2CCOCC2)c(C#N)c2c1COC(C)(C)C2 | -22.8 |
| COc1ccc(NC(=O)CSc2nc(SC)ns2)c(OC)c1 | 2.53 |
| O=c1c2ccccc2ncn1Cc1nc2ccccc2s1 | -0.504 |
| COc1cc(CNc2ccc(N3CCOCC3)cc2)cc(Br)c1OC | -23.4 |
| Cc1cc(C)cc(NCc2cc(=O)oc3cc(-c4ccccc4)c(O)cc23)c1 | 8.13 |
| O=C(CCCc1c[nH]c2ccccc12)N1CCCCCC1 | -13.9 |
| COc1ccc(OC)c(S(=O)(=O)Nc2ccccc2F)c1 | -2.62 |

| SMILES | hERG current change (%, negative = inhibition) at 10uM [%] |
| --- | --- |
| CC1=NN(C(N)=S)C(=O)C1N=Nc1ccc(S(N)(=O)=O)cc1 (stereo not shown) | 17.3 |
| Cc1cc(C)n2nc(SCc3nnc(-c4ccccc4Br)o3)nc2n1 | -16.5 |
| COc1ccc(NC(=O)c2sc3nc(C)nc(N4CCN(c5ccccn5)CC4)c3c2C)c(OC)c1 | -1.79 |
| CCN(CC)CCCNC(=O)c1cc(-c2ccc(Cl)cc2)on1 | -63.4 |
| O=C(Nc1ccc(Nc2ccccc2)cc1)N1CCOCC1 | -11 |
| CCN(CC)S(=O)(=O)c1ccc(Cl)c(NC(=O)COC(=O)c2c(C)noc2C)c1 | 3.14 |
| O=C(/C=C/c1ccccc1)Nn1c(-c2cccs2)nc2ccccc2c1=O | -3.44 |
| O=C(Oc1ccc2ccc(O)cc2c1)c1ccccc1Cl | 19.8 |
| COc1ccc(C2=NS(=O)(=O)N(C)C(C(=O)N3CCc4ccccc4C3)=C2)cc1OC | -3.31 |
| CN(C)S(=O)(=O)c1ccc(N2CCCC2)c(C(=O)NCc2ccccc2)c1 | -10 |
| CN(Cc1cn[nH]c1-c1cc2ccccc2o1)CC1CCOCC1 | -66.4 |
| O=C(C1CCCN(Cc2ccc(Cl)cc2)C1)N1CCCCC1.O=C(O)C(=O)O (stereo not shown) | -14.9 |
| c1ccc2[nH]c(CN3CCCCC3)nc2c1 | 1.41 |
| COc1ccc(NC(C)=O)cc1NC(C)C(=O)Nc1ccc(F)cc1 (stereo not shown) | -3.74 |
| Cc1[nH]c(C)c(S(=O)(=O)NCC(C)c2ccccc2)c1C(=O)N1CCCCC1 (stereo not shown) | -0.274 |
| COC(=O)c1coc(-c2ccc(C)cc2)c1C(=O)OC | 1.6 |
| Cl.O=C(c1cc(F)c(F)c(F)c1F)N1CCN(Cc2ccc3c(c2)OCO3)CC1 | 3.4 |
| COc1ccc(OC)c(S(=O)(=O)N2CCN(c3ccccn3)CC2)c1 | -12.5 |
| O=C(O)CCC(=O)N1N=C(c2c(-c3ccccc3)c3cc(Cl)ccc3[nH]c2=O)CC1c1ccccc1 (stereo not shown) | 6.94 |
